Source: article PMC4336329 (PLoS ONE, 2015)
Out of some 310,000 compounds screened, about 2,200 (0.71%) showed an effect of 50% or more. The effect is printed as a negative number. The list shows a part of the results.

target: human ether-à-go-go-related gene (hERG) potassium channel (human, UniProt Q12809); assay: primary screen, population patch clamp on CHO cells stably expressing hERG
Sequence (Q12809 whole entry, looked up): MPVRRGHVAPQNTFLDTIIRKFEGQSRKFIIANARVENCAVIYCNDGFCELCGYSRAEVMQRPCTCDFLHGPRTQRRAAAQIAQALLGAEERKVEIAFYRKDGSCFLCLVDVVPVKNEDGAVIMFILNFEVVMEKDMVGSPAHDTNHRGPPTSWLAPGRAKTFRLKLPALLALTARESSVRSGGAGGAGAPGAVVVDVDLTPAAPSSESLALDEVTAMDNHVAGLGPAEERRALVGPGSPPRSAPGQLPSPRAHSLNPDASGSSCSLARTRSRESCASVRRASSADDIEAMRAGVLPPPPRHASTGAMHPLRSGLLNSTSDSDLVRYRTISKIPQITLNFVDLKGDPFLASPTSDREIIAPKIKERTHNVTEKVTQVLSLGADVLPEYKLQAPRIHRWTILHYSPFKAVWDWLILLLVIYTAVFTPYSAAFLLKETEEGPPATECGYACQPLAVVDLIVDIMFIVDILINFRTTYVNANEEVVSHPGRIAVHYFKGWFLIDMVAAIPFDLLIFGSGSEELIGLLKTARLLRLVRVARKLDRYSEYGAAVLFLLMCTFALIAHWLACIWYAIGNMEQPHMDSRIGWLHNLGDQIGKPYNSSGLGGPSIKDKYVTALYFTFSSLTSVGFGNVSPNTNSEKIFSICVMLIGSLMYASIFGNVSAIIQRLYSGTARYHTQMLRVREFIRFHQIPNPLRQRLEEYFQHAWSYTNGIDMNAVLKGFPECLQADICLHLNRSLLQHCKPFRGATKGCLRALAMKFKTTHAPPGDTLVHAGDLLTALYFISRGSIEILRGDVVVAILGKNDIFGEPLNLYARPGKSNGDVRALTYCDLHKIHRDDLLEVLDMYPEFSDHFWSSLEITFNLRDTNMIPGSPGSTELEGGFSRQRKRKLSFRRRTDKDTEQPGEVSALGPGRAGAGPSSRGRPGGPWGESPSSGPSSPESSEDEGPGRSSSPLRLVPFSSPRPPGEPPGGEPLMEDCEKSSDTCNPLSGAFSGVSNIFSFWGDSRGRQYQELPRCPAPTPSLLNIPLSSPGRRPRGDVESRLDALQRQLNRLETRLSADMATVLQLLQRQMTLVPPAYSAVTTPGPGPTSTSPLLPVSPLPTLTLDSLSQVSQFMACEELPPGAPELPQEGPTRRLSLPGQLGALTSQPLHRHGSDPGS

Row | Structure (SMILES) | hERG current change (%, negative = inhibition) at 1uM
1 | O=C(NC1CCCCC1)C1CCN(c2nccs2)CC1 | 14.1%
2 | COc1ccccc1Nc1ccc([N+](=O)[O-])cc1N | 20.2%
3 | O=C(Nc1ccc(C(=O)N2CCC([NH+]3CCCC3)CC2)cc1)c1ccc(Br)o1.O=C(O)C(F)(F)F | 10.8%
4 | COc1ccc(/C=C/C(=O)OCC(=O)NCc2ccco2)c(OC)c1 | 6.09%
5 | O=C(NC1CCCCC1)C(c1ccc2ncccc2c1)N(Cc1ccccc1)C(=O)c1cccs1 (stereo not drawn) | -11.7%
6 | CCCC[C@@H](CNC)NC[C@H](Cc1ccc(O)cc1)NCCc1ccc(OCC)cc1 | -0.35%
7 | CCOC(=O)c1c(C)oc(/N=C/c2ccccc2O)c1C#N | 6.75%
8 | CCOC(=O)c1oc2ccccc2c1NC(=O)c1cccs1 | 0.447%
9 | CC(=O)c1c(C)[nH]c(C(=O)OCC(=O)Nc2ccc(C)cc2[N+](=O)[O-])c1C | 1.31%
10 | CCOC(=O)CSc1ncnc2c1cnn2-c1ccccc1 | 4.26%
11 | CC1Cc2ccccc2N1C(=O)CSc1nc2ccccc2o1 (stereo not drawn) | 2.83%
12 | S=C1NCCOCCOCCOCCOCCN1 | 3.3%
13 | COc1ccc2oc(C(=O)NCc3cc(OC)c(OC)cc3OC)c(C)c2c1 | 9.41%
14 | CCOc1cc(CN2CCN(C(=O)CC(C)C)CC2)ccc1OC.O=C(O)C(=O)O | -2.57%
15 | CCCNc1cc(=O)n(C)c(=O)n1C | 30.6%
16 | CCn1c(C(=O)N2CCC(Cc3ccccc3)CC2)cc2sccc21 | -1.46%
17 | COc1cccc(N2CCN(C(=O)c3[nH]c(C)c(C(C)=O)c3C)CC2)c1 | 11.3%
18 | O=[N+]([O-])c1ccccc1/C=N/n1c(-c2ccccc2)n[nH]c1=S | 10.3%
19 | CC(C)c1nc(CNC(=O)C2CCC(=O)N(CCc3ccc(Cl)cc3)C2)no1 (stereo not drawn) | -2.23%
20 | CCN(CC)CCN(C(=O)c1ccc2c(c1)CCCC2)c1nc2ccc(F)cc2s1.Cl | 11.6%
21 | Cc1cccc(OCc2n[nH]c(=S)n2-c2ccccc2)c1 | 6.06%
22 | O=C1CCC2=C(CCCC2=O)N1 | 8.8%

Row | Structure (SMILES) | hERG current change (%, negative = inhibition) at 1uM
23 | COc1ccc(-n2nc(C(=O)Nc3cc(OC)c(OC)c(OC)c3)c3ccccc3c2=O)c(OC)c1 | 3.9%
24 | CCNc1nc(NC(C)(C)C)nc(N2CCCCC2)n1 | 7.06%
25 | O=C(CCCc1cccs1)Nc1nc2c(s1)CCCC2 | 5.09%
26 | CCCCCCSc1cc(-c2nc3ccc(C)cn3c2NCc2ccccc2)ccc1OC.O=C(O)C(F)(F)F | 17%
27 | Cc1cccc(Cc2c(C)nc3nc(SCC(=O)O)nn3c2C)c1 | 16.4%
28 | Cn1c(=O)n(C)c2cc(S(=O)(=O)N3CCOCC3)ccc21 | 7.26%
29 | CC(=O)Nc1ccc(S(=O)(=O)Nc2ccccc2C(=O)N2CCCCCC2)cc1 | 9.05%
30 | COC(/C=C/Nc1ccc(C)c(C)c1)=C(C#N)C#N | 0.55%
31 | Oc1c(C=C2N=c3ccccc3=N2)sc(=S)n1-c1ccc(F)cc1 [17505669] | 5.08%
32 | Cc1ccc(NC(=O)CS(=O)CC(=O)NCCCc2ccccc2)cc1Cl (stereo not drawn) | 5.31%
33 | COc1cccc(N2CCN(C(=O)CCc3nnc4ccc(N5CCOCC5)nn34)CC2)c1 | -0.0727%
34 | COC(=O)c1ccc(NC(=O)NCCCl)cc1 | 10.3%
35 | COc1ccc(N2CC(C(=O)N3CCN(c4ccccc4)CC3)CC2=O)cc1 (stereo not drawn) | -8.5%
36 | Cc1c(C(=O)O)[nH]c2c1C(=O)CC(c1ccccc1)C2 (stereo not drawn) | 9.9%
37 | CCOc1ccc2[nH]c(C)cc(=O)c2c1 | -0.0577%
38 | O=C(/C=C/c1ccco1)Nc1ccc(CN2CCOCC2)cc1 | -17.2%
39 | O=c1/c(=C/c2ccc([N+](=O)[O-])cc2)sc2n1CCCN=2 | -3.34%
40 | COC(=O)Cn1c(=NC(=O)c2ccc(S(=O)(=O)N3CCOCC3)cc2)sc2cc(S(N)(=O)=O)ccc21 | 8.39%
41 | COC(=O)c1sc(-c2ccc(C(C)(C)C)cc2)cc1NC(=O)CCC(=O)O | 14.4%
42 | CC(=O)c1ccc(OCCCC(=O)N2CCN(S(=O)(=O)c3ccc(C(C)C)cc3)CC2)cc1 | 7.77%
43 | COc1ccc(C#Cc2c(-c3ccc(OC)cc3)oc3ccc(-c4ccc5c(c4)OCO5)cc23)cc1 | 7.24%
44 | Cc1ccc(NC(=S)N(CCC(C)C)C(C)c2ccncc2)c(Cl)c1 (stereo not drawn) | 10.9%

Row | Structure (SMILES) | hERG current change (%, negative = inhibition) at 1uM
45 | CCOC(=O)c1cnc2c(C(F)(F)F)cccc2c1N1CCOCC1 | 0.0827%
46 | CC(C)Cn1nc(NC(=O)C(C)(C)C)c2cc3ccccc3nc21 | 12.1%
47 | COc1ccc(-c2csc(N(CCCN(C)C)C(=O)c3ccc(C)cc3)n2)cc1.Cl | -17.2%
48 | Cc1cccc(CCNC(=O)Cn2ncc3c([nH]c4ccc(C)cc43)c2=O)c1 | 8.4%
49 | Cc1cc(C)c2oc(C(=O)Nc3nnc(C(C)C)s3)cc(=O)c2c1 | 14.7%
50 | COc1ccccc1NC(=O)CN1C(=O)NC2(CCCc3ccccc32)C1=O (stereo not drawn) | 7.03%
51 | O=C(c1cccc(S(=O)(=O)N2CCCCCC2)c1)N1CCN(c2ccccc2)CC1 | -11.5%
52 | O=C(COC(=O)C1CCN(S(=O)(=O)c2cccc3cccnc23)CC1)c1ccc(F)cc1 | 12.6%
53 | COC(=O)c1ccccc1NC(=O)c1ccc(NS(C)(=O)=O)cc1 | -14.7%
54 | CSc1sc(-c2nnc(SCC(=O)Nc3ccccc3)n2C)c2c1C=CCC2 | -4.8%
55 | Cn1c2ccccc2c2nnc(SCC(=O)Nc3cccc(O)c3)nc21 | -10%
56 | S=C(NCCc1ccccc1)NN=C1CCCCCC1 | 17.9%
57 | CCn1c(=O)[nH]c(=O)c2c(N)c(C(=O)c3ccccc3OC)sc21 | 2.48%
58 | Cc1ccc(C(=O)OCC(=O)Nc2sc3c(c2C#N)CCC3)cc1 | 5.83%
59 | Cc1ccc(CNC(=O)c2cnccn2)cc1 | 11.4%
60 | N/C(=N\OC(=O)c1cccc(C(F)(F)F)c1)c1cnccn1 | 10.5%
61 | O=C(CNC(=O)c1cccs1)N/N=C/c1ccc(Cl)cc1 | 8.95%
62 | COc1cccc2c3c(c(C)nc12)CC(C)O3 (stereo not drawn) | -10%
63 | O=C(NCc1ccccc1)c1onc(CSc2ccccn2)c1C(=O)NCc1ccccc1 | 11.7%
64 | CCNS(=O)(=O)c1ccc(NC(=O)Nc2cccc(C(F)(F)F)c2)cc1 | 2.43%
65 | O=C(c1ccc2c(=O)n3c(nc2c1)CCCCC3)N1CCN(c2ccc(F)cc2)CC1 | 9.38%
66 | O=C(COC(=O)CNS(=O)(=O)c1ccc(Br)cc1Cl)NC1CC1 | 12.2%

Row | Structure (SMILES) | hERG current change (%, negative = inhibition) at 1uM
67 | O=C(CCn1c(SCC(=O)c2ccccc2)nc2ccccc2c1=O)NCc1ccc(F)cc1 | 7.58%
68 | COc1ccc(OC)c(NC(=O)C2COc3ccccc3O2)c1 (stereo not drawn) | 16.2%
69 | O=C(Cc1cn(-c2ccccc2)nc1-c1ccccc1)N1CCCCC1 | 6.11%
70 | CN(C)CCCNC(=S)N(CCO)Cc1cc2cc3c(cc2[nH]c1=O)OCO3 | 12.6%
71 | CCC1(C)Nc2ccccc2C(=O)N1O (stereo not drawn) | 6.65%
72 | COc1ccccc1/C=C/C=N/NC(=O)CCn1nnc2ccccc21 | 6.98%
73 | Cn1cnnc1SCC(=O)Nc1ccc2nc(SCc3ccccc3Cl)sc2c1 | 0.119%
74 | CCN(Cc1cnn(C)c1)C(=O)c1cc(COc2ccc3c(c2)CCCC3)on1 | 10.9%
75 | CC1(c2ccccc2)NC(=O)N(CC(=O)Nc2ccccc2C(=O)N2CCCCC2)C1=O (stereo not drawn) | 18.1%
76 | COc1ccccc1OCCC(=O)OCC(=O)c1[nH]c(C)c(C(C)=O)c1C | 8.01%
77 | CCC(=O)Nc1c(-c2ccc(OC)cc2)c(=O)c2ccccc2n1C | 3.08%
78 | O=C(NCC(=O)N1CCC2(CC1)NCCc1[nH]cnc12)c1ccccc1F | 9.99%
79 | COCCOC(=O)c1[nH]c2c(c1C)C(=O)CC(c1ccc(N(C)C)cc1)C2 (stereo not drawn) | 10.5%
80 | CN(CCOc1ccccc1)C(=O)c1cc(COc2c(F)cccc2F)on1 | 5.18%
81 | COc1ccc(CCNCc2cc(C)n(-c3ccc(OC)cc3)c2C)cc1.O=C(O)C(=O)O | 7.58%
82 | Cc1ccc(CN2CCC(n3nccc3NC(=O)c3ccc4c(c3)OCO4)CC2)o1 | -6.38%
83 | COc1c(C)cc(C(=O)C2CCCN(C(=O)c3cc(C)on3)C2)cc1C (stereo not drawn) | 14%
84 | CC(C)c1nnc(NC(=O)CCC(=O)N2CCN(C3c4ccccc4-c4ccccc43)CC2)s1 | 13.8%
85 | Cc1cccc(NC(=O)c2ccccc2C(=O)Nc2cccc(C)c2)c1 | 4.17%
86 | CC1=C([N+](=O)[O-])C(c2ccc3c(c2)OCO3)N(C)C(=O)N1C (stereo not drawn) | 9.01%
87 | CCOC(=O)C1=C(N)OC2=C(C(=O)CC(C)(C)C2)C1c1ccc(C)s1 (stereo not drawn) | -8.76%
